Test results as given in PubChem BioAssay AID1347073 (National Center for Advancing Translational Sciences (NCATS), 2019).
Screen size: about 45,000 compounds; about 200 (0.44%) were called active. Not shown: some 7% with an inconclusive outcome. The call rests on the fitted dose curve; in most records, active means well fitted activation curve with a large enough effect; inconclusive means small, poorly fitted or top-dose-only effect; inactive means no such curve, though single readings can be large or run the other way. The list shows a part of the results.

Assay: qHTS of TDP-43 Inhibitors: NCGC Sytravon Library Screen; further: 0% is about no effect; nearly all actives have a fitted effect of over 55% in size
Conditions: yeast TDP-43 toxicity rescue, BacTiter-Glo growth, 24 h; series mostly up to 46.1 µM; growth rescue (activation): at the top concentration
In short: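 TDP-43-expressing yeast, pregrown in raffinose, seeded at OD600 0.02 in galactose medium with compound for 24 hr at 30 deg C. Growth read by BacTiter-Glo luminescence, so rescue of toxicity appears as activation.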

Row | SMILES | growth rescue (activation)
1 | O=C(Nc1ccc(Br)cc1)C1CC(O)CN1C(=O)Oc1ccccc1 (stereo not drawn) | inactive: -2.38%
2 | Cc1ccc2oc(C(=O)N(Cc3sccc3C)C3CCS(=O)(=O)C3)c(C)c2c1 (stereo not drawn) | inactive: 18%
3 | O=C1CN(S(=O)(=O)c2ccc(F)cc2)CCN1 | inactive: -6.3%
4 | O=C1CN(C(=O)COC(=O)CNC(=O)c2ccc(Br)o2)c2ccccc2N1 | inactive: 5.28%
5 | COc1ccc(NC(=O)Cc2nnc(SCC(=O)Nc3ccc(F)cc3)n2C)cc1 | inactive: 1.77%
6 | Cc1ccc(NC(=O)C2C3C=CC4(O3)C2C(=O)N(CCCN2CCCC2)C4C(=O)NC2CCCCC2)cc1Cl (stereo not drawn) | inactive: 7.9%
7 | Cc1ccc(NC(=O)CSc2nnc(-c3n[nH]c4ccccc34)n2-c2ccccc2)c(C)c1 | inactive: 19%
8 | Cc1ccc(NC(=O)CCN2CCN(CCO)CC2)cc1 | inactive: -7%
9 | Cc1ccc(N2CC(C(=O)N3CCC(C(=O)Nc4nncs4)CC3)CC2=O)cc1 (stereo not drawn) | inactive: 5.14%
10 | CN(C)c1ccc(-c2ccnc3c2CC(C)(C(=O)Nc2ccc(Cl)c(C(F)(F)F)c2)O3)cc1 (stereo not drawn) | inactive: 2.64%
11 | Cn1ccnc1Sc1ccc(/C=N/NC(=O)c2ccccc2O)cc1[N+](=O)[O-] | inactive: -20.1%
12 | CCCN(CCC)C(=O)Cn1c(=O)n(CCCCCC(=O)NCc2ccccc2Cl)c(=O)c2sccc21 | inactive: -2.22%
13 | O=C(NCc1ccon1)c1ccc(OC2CCN(CCc3ccccc3)CC2)cc1 | inactive: 11.7%
14 | COc1ccc(F)cc1S(=O)(=O)N1CCCCC1 | inactive: 30.3%
15 | Cc1oc(-c2ccccc2)cc1C(=O)Nc1cccc(/C=C\C(=O)O)c1 | inactive: 10.7%
16 | COc1ccccc1N1CCN(C(CNS(=O)(=O)c2ccccc2)c2cccnc2)CC1 (stereo not drawn) | inactive: 11.6%
17 | Cc1nc2ccccc2nc1OCc1ccc([N+](=O)[O-])cc1 | inactive: -6.12%
18 | COc1ccc(N2C(=O)Cc3c2nc(N)c(C#N)c3N)cc1 | inactive: 21.3%
19 | O=C(Cn1c(CO)nc2ccccc21)NCCc1ccccc1 | inactive: 6.86%
20 | Cc1ccccc1CN1CCN(C(C)C(=O)NCc2ccccc2)CC1 (stereo not drawn) | inactive: -5.63%
21 | Cc1ccc(-n2ncc3c(SCc4ccccc4)ncnc32)cc1 | inactive: 10.9%
22 | Cc1ccc(S(=O)(=O)N(C)Cc2ccc(C(=O)NN=C3C4CC5CC(C4)CC3C5)cc2)cc1 | inactive: 19.8%
23 | OCCN(CCO)c1nc2ccccc2[nH]1 | inactive: 5.07%

Row | SMILES | growth rescue (activation)
24 | CC(=O)c1cccc(NC(=O)C2Cc3c(-c4ccccc4Oc4ccccc4)ccnc3O2)c1 (stereo not drawn) | inactive: 23.5%
25 | CCOc1ccc(C(C)=O)cc1COC(=O)CCc1cc(OC)c(OC)c(OC)c1 | inactive: 16.2%
26 | Cc1ccc(-c2c[n+](CC(=O)c3cccs3)c3n2CCC3)cc1 | inactive: 9.68%
27 | CCOc1ccc(S(=O)(=O)N2CCCC(C(=O)NCc3ccncc3)C2)cc1Cl (stereo not drawn) | inactive: -15.5%
28 | Cc1ccc(S(=O)(=O)CC(=O)c2cc(C)c(O)c(C)c2)cc1 | inactive: 0.902%
29 | Cc1cc([N+](=O)[O-])cc([N+](=O)[O-])c1NCC(C)C | inactive: 28.9%
30 | Cc1ccc(S(C)(=O)=O)cc1C(=O)NC(C)C1CC2CCC1C2 (stereo not drawn) | inactive: 7.39%
31 | CCCCn1c(N)c(N(CCC(C)C)C(=O)COC(=O)c2ccc([N+](=O)[O-])s2)c(=O)[nH]c1=O | inactive: 17.6%
32 | Cc1ccc(-n2nc3ccc(NC(=S)NC(=O)/C=C/c4ccco4)cc3n2)cc1 | inactive: 5.3%
33 | CCOC(=O)C1CCCN(C(=O)c2ccccc2)CC1 (stereo not drawn) | inactive: 23.2%
34 | CC(=O)Nc1sc2c(c1C#N)CCC2 | inactive: 11%
35 | Cc1nn(C)c(C)c1CN(C)C(=O)c1cc2n(n1)C(C(F)(F)F)CC(c1cccs1)N2 (stereo not drawn) | inactive: 7.68%
36 | COc1cc2c(cc1OC)C(C(=O)Nc1cc(OC)c(OC)c(OC)c1)C(c1cccnc1)N(C)C2=O (stereo not drawn) | inactive: 11.7%
37 | CCOc1ccc(C(=O)Nc2ccc3nc(N4CCN(CC)CC4)cc(C)c3c2)cc1 | inactive: 3.19%
38 | COc1ccc(NC(=S)NNC(=O)c2cccnc2)cc1OC | inactive: 2.57%
39 | CC(=O)/C(C#N)=C1\NC(=O)C(Cc2ccccc2)S1 (stereo not drawn) | inactive: 1.69%
40 | COc1ccccc1C(=O)NNC(=O)C(=O)Nc1ccc(C)cc1 | inactive: 16.7%
41 | CCCOc1ccccc1/C=C1\SC(N2CCCCC2)=NC1=O | inactive: 27.2%
42 | Cc1cccc(N2C(=O)SC(SC(=Nc3ccccc3)Nc3ccccc3)C2=O)c1 (stereo not drawn) | inactive: -20.4%
43 | O=C(NCc1ccccc1)C(c1ccccn1)N(C(=O)c1csnn1)c1ccccc1F (stereo not drawn) | inactive: 16.9%
44 | CCOc1cc(N2CCOCC2)c(OCC)cc1NC(=O)CN1C(=O)NC(CC(C)C)C1=O (stereo not drawn) | inactive: 0.404%
45 | Cc1cc(C)c2c(=O)[nH]c(SCC(=O)Nc3ccc(Br)cc3)nc2n1 | inactive: -24.4%
46 | CC(O)CNc1ncnc2cc(-c3ccc(F)cc3)sc12 (stereo not drawn) | inactive: 2.48%

Row | SMILES | growth rescue (activation)
47 | O=C(CCNC(=O)c1ccco1)NCc1ccc(C(=O)O)cc1 | inactive: 9.91%
48 | CCc1nc2scc(-c3ccccc3)c2c(=O)n1N | inactive: 17.5%
49 | CO/N=C(\C(=O)O)c1csc(NN=C(C)C)n1 | inactive: -11.5%
50 | O=C(COc1ccccc1[N+](=O)[O-])Nc1ccccc1N1CCCC1 | inactive: 18.4%
51 | O=C(Nc1ccccc1)OC1C2CCC1C(N1CCCCC1)CC2 (stereo not drawn) | inactive: -2.37%
52 | Cc1ccc(C2(C)NC(=O)N(CC(=O)N3CCc4ccccc43)C2=O)cc1 (stereo not drawn) | inactive: -0.519%
53 | Cc1noc(C)c1S(=O)(=O)Nc1ccc(C(=O)NCc2ccccc2)cc1 | inactive: 13.5%
54 | COc1ccc(C(=O)NC2CCN(C(=S)NCCc3ccccc3)CC2)cc1 | inactive: -3.52%
55 | CCN(CC)CCN(C(=O)Cn1nnc(-c2ccc(C)o2)n1)C(C(=O)NC1CCCC1)c1ccc(F)cc1 (stereo not drawn) | inactive: 2.41%
56 | Nn1c(SCC(=O)NCC2CCCO2)nnc1-c1ccco1 (stereo not drawn) | inactive: 5.88%
57 | CCN1CCN(c2ccc([N+](=O)[O-])cc2S(=O)(=O)N2CCOCC2)CC1 | inactive: -10.4%
58 | CC(=O)c1c(C)[nH]c(C(=O)COC(=O)c2ccc3c(=O)n4c(nc3c2)CCC4)c1C | inactive: -6.85%
59 | CC(C)NC(=O)C1CCN(C2CCN(C(=O)c3cc4c(s3)CCCCC4)CC2)CC1 | inactive: 3.66%
60 | O=C1C(Cc2ccc(O)cc2)NC(=S)N1C1CCCCC1 (stereo not drawn) | inactive: 23%
61 | CC/C(C)=N\Nc1nc(-c2cc3cc(OC)ccc3oc2=O)cs1 | inactive: -1.26%
62 | CCCc1nc(SCC(=O)NC2CCCC2)c2ccccc2n1 | inactive: 11.7%
63 | CC(=O)N1CCN(c2ccc([N+](=O)[O-])cc2C#N)CC1 | inactive: 18.6%
64 | COCC(C)N=C1SCCN1Cc1ccccc1 (stereo not drawn) | inactive: 12.3%
65 | O=C(c1ccc(S(=O)(=O)NCC2CCCO2)cc1)N1CCc2ccccc21 (stereo not drawn) | inactive: 13.2%
66 | O=C(NCCc1ccc(F)cc1)c1n[nH]c2ccccc12 | inactive: 28.9%
67 | O=C(CSc1ncccn1)N1CCCC1 | inactive: -4.19%
68 | Cc1ccccc1NC(=O)n1ncc2cc(Cl)ccc21 | inactive: 7.48%
